Data on 43 compounds can be found in ChEMBL document CHEMBL4888484, “Replenishing the malaria drug discovery pipeline: Screening and hit evaluation of the MMV Hit Generation Library 1 (HGL1) against asexual blood stage Plasmodium falciparum ,using a nano luciferase reporter read-out” (2022).

About 540 (0.36%) of roughly 150,000 compounds showed an effect of 50% or more. The list shows a part of the results.

The test system of this experiment is Plasmodium falciparum. Briefly: Primary screen in NF54 nanoGlo assay, in single point, at 2uM, 72h; a lower Z score goes with more inhibition. The class given is functional, Erythrocyte. Particulars: timepoint 72 hour.
Take `O=C1CCC(=O)N1Cc1nc(C2CCC(F)(F)CC2)cs1`: the “% Inhibition” value is -10% and the Z score turned out to be 1.23.

As to `CCCCNC(=O)OC[C@H]1CCCCN1`, the “% Inhibition” value is -5% and the Z score was 0.55.

Turning to `Cc1nc2n(c1C)CCN([C@@H](C)C(=O)N1CCCc3ccccc31)C2`, the “% Inhibition” value is given as -7% and the Z score is given as 1.29.

As to `CC(C)c1cncnc1NC(=O)Cc1ccccc1Cl`, the “% Inhibition” value was -16% and the Z score is 1.84.

Take `c1ccc(-c2noc(-c3cncnc3N[C@H]3CCc4ccccc43)n2)cc1`: the “% Inhibition” value is -3% and the Z score is recorded as 0.46.

In the case of `O=C(c1cccc2[nH]c(C(F)F)nc12)N1CCCC[C@H]1c1ccco1`, the “% Inhibition” value is reported as -13% and the Z score worked out at 2.14.

As to `Cc1nc(C(=O)N2CCn3c(Cl)ccc3[C@@H]2C)c(C)o1`, the “% Inhibition” value is listed as -5% and the Z score was 0.73.

On to `CC(C)(C)C(=O)NCCCC(=O)N1CCCCC1`, for which the “% Inhibition” value was -11% and the Z score was 1.64.

Consider `COc1c(C)cnc(Cn2cc(Cl)c(=O)[nH]c2=O)c1C`, for which the “% Inhibition” value is -4% and the Z score is reported as 0.71.

As to `Cc1cc(NC(=O)N2C[C@H]3CC[C@@H](C2)[C@H]3O)n(Cc2ccccc2Cl)n1`, the “% Inhibition” value is -9% and the Z score came out at 1.23.

Consider `NC(=O)c1cc(F)c(F)cc1NS(=O)(=O)C[C@H]1CCCO1`, for which the “% Inhibition” value is reported as -11% and the Z score came to 1.09.

Consider `CC(C)(C)OC(=O)N1CC2(CN(Cc3ccccc3)CC(C)(C)O2)C1`, for which the “% Inhibition” value is recorded as -4% and the Z score amounted to 0.52.

On to `Cn1cccc1[C@@H](O)CCNC(=O)Cc1ccsc1`, for which the “% Inhibition” value is -5% and the Z score worked out at 0.57.

In the case of `COc1cccc(N2CCN(C(=O)c3cccc(-c4nc(C)c(C)s4)c3)CC2)c1`, the “% Inhibition” value is recorded as -17% and the Z score came out at 2.19.

With `COC(C)(C)c1noc(C2CC3CCC2C3)n1` (stereo unspecified), the “% Inhibition” value is -5% and the Z score turned out to be 0.66.

Consider `CC(=O)/N=C1\OC2C(CS(=O)(=O)C2(Br)Br)N1C(C)=O` (stereo unspecified), for which the “% Inhibition” value is -36% and the Z score was 4.17.

Take `CC1CC(c2cccnc2)N(C(=O)CCC(=O)OC(C)(C)C)C1` (stereo unspecified): the “% Inhibition” value is on record as -12% and the Z score turned out to be 1.69.

With `CCOC(=O)[C@H]1CCCN(C(=O)c2nc(C)ns2)C1`, the “% Inhibition” value is recorded as -19% and the Z score was determined as 2.9.

As for `O=C(CC1CCCC1)N1C[C@H]2CC[C@@H](C1)N(Cc1ccccc1)C2=O`, the “% Inhibition” value is -15% and the Z score was 1.87.

For the compound `CN(c1ccc2cccc(Br)c2n1)C1CCC(O)CC1` (stereo unspecified), the “% Inhibition” value was 10% and the Z score is reported as -1.23.

`CC(=Cc1ccccc1OC(F)F)CN1CCN(C2CC2)CC1`: the “% Inhibition” value is on record as -4% and the Z score was 0.72.

In the case of `Cc1ccc(-c2cn3cc(C(=O)N[C@@H](C)c4cccnc4)ccc3n2)cc1`, the “% Inhibition” value is listed as -1% and the Z score was found to be 0.17.

In the case of `Cc1ccc(C)c(NC(=O)N(C)CCc2noc(C(=O)NCc3ccc(Cl)cc3)n2)c1`, the “% Inhibition” value was -14% and the Z score amounted to 1.27.

Turning to `Cc1cccc2sc(N3CC[C@H](c4cc(=O)[nH]c(=O)[nH]4)C3)nc12`, the “% Inhibition” value was 4% and the Z score is recorded as -0.6.

Regarding `CC(C)C1OCCCC1CNC(=O)NCc1nc(C(F)(F)F)cs1` (stereo unspecified), the “% Inhibition” value was determined as 0% and the Z score was -0.04.

On to `CC(C)(C)NC(=O)N1CCC[C@@H]1CO`, for which the “% Inhibition” value is reported as -9% and the Z score is recorded as 1.11.

As to `COc1ccnc(N2CC(O)(c3cnnn3C)C2)n1`, the “% Inhibition” value is -19% and the Z score was found to be 3.56.

For `CN(C)c1ccc(C(=O)N2CC[C@](C)(O)[C@H](O)C2)cn1`, the “% Inhibition” value is listed as 0% and the Z score amounted to 0.04.

In the case of `Cn1nnc2c(N[C@@H]3CCc4cc(Br)ccc43)ncnc21`, the “% Inhibition” value amounted to 0% and the Z score is recorded as -0.06.

Take `Cc1noc(CNC(=O)c2cc3n(n2)CCCO3)n1`: the “% Inhibition” value is reported as -11% and the Z score was found to be 1.73.

`CCN(CCO)c1nc(N2CCCCC2)c2cnn(C)c2n1`: the “% Inhibition” value is 10% and the Z score is -1.23.

For `COC(=O)c1cn(NC(=O)c2cc(C3CC3)on2)cc2c(O)nnc1-2`, the “% Inhibition” value is recorded as -9% and the Z score was determined as 1.2.

Take `C/C=C/CN1CCCn2nc(CN(C)Cc3nc4cccc(C)c4[nH]3)cc2C1`: the “% Inhibition” value came out at 10% and the Z score is -1.34.

`CCCC(=O)O[C@@H]1C[C@@H](C)N(C(=O)c2ccccc2)c2ccc(C)cc21`: the “% Inhibition” value is 0% and the Z score is on record as -0.06.

Consider `O=C(NCC[C@@H]1CCCC[C@@H]1O)c1cnc2n1CCC2`, for which the “% Inhibition” value is listed as 5% and the Z score is -0.77.

`CCn1c([C@H]2CCCN(S(=O)(=O)c3ccc(C)c(C)c3)C2)n[nH]c1=O`: the “% Inhibition” value is on record as -6% and the Z score worked out at 0.98.

`O=C1CCN(C(=O)c2ccc(-c3ncon3)cc2)CCN1`: the “% Inhibition” value was determined as 0% and the Z score is -0.05.

Consider `CCN(CC)C(=O)CN(C)c1nc(N)nc(C(C)(C)C)n1`, for which the “% Inhibition” value was -19% and the Z score is recorded as 2.41.

In the case of `CCCC(CCc1ccccc1)NC(=O)C1CNCCO1` (stereo unspecified), the “% Inhibition” value was -6% and the Z score is recorded as 0.79.

For `Fc1ccc([C@@]2(c3noc(-c4ccc[nH]4)n3)CCOC2)cc1`, the “% Inhibition” value is -8% and the Z score was 1.66.

As for `CCN1CCC[C@H](CN(C)c2ccc(C(C)C)nn2)C1`, the “% Inhibition” value is -4% and the Z score is given as 0.67.

In the case of `CCc1nc(CCN=C(N)Nc2ccc3c(c2)OCCO3)cs1`, the “% Inhibition” value was -1% and the Z score was 0.07.

As for `CN(Cc1ccc(Cl)cc1)[C@H]1CCOC1=O`, the “% Inhibition” value is reported as -9% and the Z score stood at 1.
